Assay results: a compilation of properties of binary mixtures (doi:10.1021/je960186a)
Some of these densities may be calculated back from excess volumes.

Test: xn = mol fraction of the nth substance listed
Conditions: 298.15 K, 100 kPa

CC1COC(=O)O1 (centres undefined) + CC(C)O
Conditions | mass density [kg/m3]
x1 = 0.0424 | 800.6
x1 = 0.0666 | 811.8
x1 = 0.1555 | 852.2
x1 = 0.2087 | 876.1
x1 = 0.2656 | 901.3
x1 = 0.3474 | 936.9
x1 = 0.3956 | 957.6
x1 = 0.4301 | 972.2
x1 = 0.4758 | 991.5
x1 = 0.5679 | 1029.6
x1 = 0.608 | 1046
x1 = 0.7571 | 1105.6
x1 = 0.8605 | 1146
x1 = 0.9114 | 1165.7

CC1COC(=O)O1 (centres undefined) + CO
Conditions | mass density [kg/m3]
x1 = 0.0148 | 799.9
x1 = 0.051 | 830.8
x1 = 0.0754 | 850.3
x1 = 0.113 | 878
x1 = 0.1717 | 917.2
x1 = 0.2136 | 942.5
x1 = 0.2529 | 964.4
x1 = 0.2874 | 982.2
x1 = 0.3593 | 1016.1
x1 = 0.3985 | 1032.9
x1 = 0.5135 | 1076.4
x1 = 0.6317 | 1113.8
x1 = 0.7523 | 1146.2
x1 = 0.8694 | 1173.2
x1 = 0.9587 | 1191.6
